The other results are listed elsewhere or left out. At the low end of the ranking the order means little.
Biological target: T1, GST-Rok (full length) (UniProt O34857)
T1 sequence: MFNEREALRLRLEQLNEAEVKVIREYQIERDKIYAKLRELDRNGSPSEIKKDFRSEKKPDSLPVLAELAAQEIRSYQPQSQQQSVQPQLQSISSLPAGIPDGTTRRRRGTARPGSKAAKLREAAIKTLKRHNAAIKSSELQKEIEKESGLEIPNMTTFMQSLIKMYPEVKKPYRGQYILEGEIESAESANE
Experiment: protein binding microarray;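 also: rank score from −0.5 (least bound) to 0.5 (best bound)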
Conditions: Rok is a gene silencer of Bacillus subtilis; high values mean tight binding; most listed sequences are background and not binding sites; double strand, one strand shown

Sequence	binding signal
CTGATGCC	-0.239 E-score
AAGAATGA	0.18 E-score
ACGGTCAT	0.0717 E-score
AGCTCATG	-0.0852 E-score
CATGCCAA	-0.0955 E-score
GGTACACA	0.0609 E-score
ACGGCCGT	-0.181 E-score
GTTATATA	0.296 E-score
GAAATGGA	-0.0107 E-score
GCACGTCC	-0.0724 E-score
GCATTCAA	-0.000228 E-score
AAGTAATA	0.275 E-score
ATGTCCCC	-0.322 E-score
AAAAGGAA	-0.0367 E-score
AATTAGCC	0.0506 E-score
ACAAGACC	-0.199 E-score
CCAACTGG	-0.154 E-score
GACGTAGA	0.0633 E-score
ATAGGCGC	-0.036 E-score
GACCCTTA	-0.105 E-score
AAAGCCTC	-0.244 E-score
GAGATACC	-0.0348 E-score
AGGAAACC	-0.254 E-score
AGTAGGAT	0.334 E-score
AAAGGCAG	-0.214 E-score

Sequence	binding signal
AGTCTGAA	-0.126 E-score
CCTATCTC	0.168 E-score
AGTGCGAG	-0.162 E-score
CACCCTCC	-0.16 E-score
CGCAACCA	-0.0956 E-score
CGTTTCAC	-0.313 E-score
AGTCGTAT	0.0627 E-score
AACTCTTC	-0.0814 E-score
AGCGTGTC	-0.0558 E-score
AGCAGTGC	-0.162 E-score
CACATCTA	0.268 E-score
CCAGCTGC	-0.043 E-score
ATACACGC	0.202 E-score
AAGGATAC	0.0607 E-score
AGTACTGC	0.114 E-score
AAACTGCA	0.0886 E-score
CACGGGAC	-0.343 E-score
GTAGAATA	0.292 E-score
CAGAATAG	0.106 E-score
AGGGAGAT	-0.221 E-score
CAAGTTAA	0.0371 E-score
AGTATTAG	0.333 E-score
GAACGGCA	-0.144 E-score
ACCTCTCC	-0.175 E-score
ACAGTCCC	-0.217 E-score

Sequence	binding signal
AGTAAGAG	-0.132 E-score
GACCATCC	-0.0513 E-score
CACAGTCG	-0.000742 E-score
CCCCAATC	-0.325 E-score
ATATTACG	0.281 E-score
GTCAATCA	-0.0178 E-score
CCAAGTTC	-0.0498 E-score
ACTAATTG	0.184 E-score
ACATACTG	0.141 E-score
AAAGCGTG	-0.163 E-score
ACGCGCTG	-0.0959 E-score
AAGCGGAG	-0.128 E-score
CCATCAGG	-0.101 E-score
GTGCGTAA	0.0292 E-score
GAGGATAC	-0.124 E-score
GATTAACC	-0.0693 E-score
ACAGCTAT	0.15 E-score
CCGGGCCA	-0.318 E-score
GGGCGACA	-0.251 E-score
CCCCGTTA	-0.249 E-score
ATTATGTG	0.185 E-score
CCATGGGC	-0.327 E-score
AAGAGGAG	-0.246 E-score
GGAGACTA	-0.0693 E-score
GCCCATTA	-0.106 E-score

Sequence	binding signal
CGGATCCC	-0.231 E-score
CCGCAGAA	-0.0699 E-score
CAGGCTGC	-0.0469 E-score
ATTTGGGA	-0.131 E-score
ATAGATTC	0.374 E-score
AAGGCACC	-0.198 E-score
TGTGAGAA	0.216 E-score
GTTGTACA	0.223 E-score
CCCTGTCC	-0.0807 E-score
CCTCGTTA	-0.0836 E-score
CCGATTAG	-0.0942 E-score
AGCAAAGG	-0.203 E-score
GGTGGGCA	-0.165 E-score
ATGCTATG	0.0577 E-score
CGTATCTC	0.184 E-score
GAGCTGGC	-0.148 E-score
CGCGTGGC	-0.208 E-score
CAACCACA	0.0291 E-score
CCATCACC	-0.203 E-score
ACCAGCTC	-0.165 E-score
GAACTCTC	0.0241 E-score
AAGCTATG	0.0177 E-score
ATCACTCA	0.155 E-score
AGAGATGA	-0.0694 E-score
ACACCGAT	0.00689 E-score

Sequence	binding signal
AGTTAGGA	0.158 E-score
CTTCTTCA	-0.176 E-score
GACGCTGC	-0.188 E-score
CGATGAGA	0.0331 E-score
AAAGCCTA	-0.0192 E-score
CGTCCAGC	-0.013 E-score
ACCCGAAA	-0.25 E-score
AGGACTCC	-0.253 E-score
CCGTCGGC	-0.252 E-score
AGATGCCC	-0.263 E-score
GCCCCACA	-0.364 E-score
AAAGCTTC	-0.133 E-score
CTGATCTC	-0.039 E-score
AGGTAGCA	0.161 E-score
ATGGGTCG	-0.172 E-score
ACCATATA	0.243 E-score
ATCCAGGA	0.142 E-score
TCGCAAGA	-0.0621 E-score
GGCCCGTA	-0.126 E-score
ATCATGAA	0.136 E-score
CCTGGCCG	-0.289 E-score
CCCGACCA	-0.18 E-score
ACCAGAAG	0.0484 E-score
CCCTGTAG	-0.162 E-score
CACATTGA	0.16 E-score

Sequence	binding signal
CAGTCATC	-0.0997 E-score
ATGACCTG	-0.114 E-score
ATCGGAGA	0.0123 E-score
TAGCTGCA	0.0594 E-score
CATTCGCC	-0.0598 E-score
CGAGGAGA	-0.127 E-score
TAAACACA	0.21 E-score
CGGCGAAG	0.0313 E-score
AGCGAGGA	-0.294 E-score
AGATGCGG	-0.156 E-score
TATTATCA	0.227 E-score
CCCACGAA	-0.202 E-score
GTAAAACA	0.201 E-score
CATACGTA	0.158 E-score
AGCTACTG	0.294 E-score
GTTTCGGA	0.0521 E-score
CATCACTA	0.0263 E-score
AACATGCG	-0.133 E-score
CCAAGACA	-0.134 E-score
CATCCGTA	0.112 E-score
CGCCCTGA	-0.353 E-score
ATCGTGCG	-0.0403 E-score
ATAGTCTG	0.347 E-score
AGCGCCCT	-0.354 E-score
CTCGGCAA	-0.0472 E-score

Sequence	binding signal
TAGAGACA	0.233 E-score
TAAATGAA	0.0933 E-score
CGCGTCAG	-0.243 E-score
AGTCAAGA	-0.054 E-score
GCCGGGGA	-0.294 E-score
AAGTTGGC	0.11 E-score
CCCTGACA	-0.211 E-score
CAAACGCC	-0.178 E-score
CTGTACCA	-0.0416 E-score
GGCCAGCA	-0.363 E-score
AATTACCA	0.326 E-score
CATATCAC	0.0979 E-score
GATGTCCA	-0.0564 E-score
CCGACTTC	-0.187 E-score
TCAGAGAA	-0.154 E-score
CCGGTTCG	-0.219 E-score
AAAAAATT	-0.0604 E-score
AGAAGGCT	-0.245 E-score
CAAGTCTG	-0.111 E-score
GCGTCTAC	0.0278 E-score
CCATCAAA	-0.0223 E-score
CAGGGATG	-0.217 E-score

Source: article PMC6212790
